Assay results: patent US12679903B2, “Antibody for specifically binding to lysyl-tRNA synthetase N-terminal domain exposed to extracellular membrane” (Zymedi Co., Ltd., priority 2018, dated 2026)

B1: N3-8-1 mutant LALA: N3-8-1 with ADCC/CDC function removed; HC SEQ ID NO: 226, LC 111 (antibody)
heavy: EVQLLESGGGLVQPGGSLRLSCAASGFTFSSYDMSWVRQAPGKGLEWVSAISPYSGRIYYADSVKGRFTISRDNSKNTLYLQMNSLRAEDTAVYYCARMALDFDYWGQGTLVTVSS[letters of human IgG1 constant region with changes omitted]
light: QSVLTQPPSASGTPGQRVTISCTGSSSNIGSNYVTWYQQLPGTAPKLLIYDNSNRPSGVPDRFSGSKSGTSASLAISGLQSEDEADYYCSSFSDELGAYVFGGGTKLTVLGQPKAAPSVTLFPPSSEELQANKATLVCLISDFYPGAVTVAWKADSSPVKAGVETTTPSKQSNNKYAASSYLSLTPEQWKSHRSYSCQVTHEGSTVEKTVAPTECS
modifications: IgG heavy chain 6_IgG1 mutant LALA_amino acid; IgG light chain 3
B2: N3-8-1 mutant LALATA: N3-8-1 with ADCC/CDC function removed; HC SEQ ID NO: 228, LC 111 (antibody)
heavy: EVQLLESGGGLVQPGGSLRLSCAASGFTFSSYDMSWVRQAPGKGLEWVSAISPYSGRIYYADSVKGRFTISRDNSKNTLYLQMNSLRAEDTAVYYCARMALDFDYWGQGTLVTVSSASTKGPSVFPLAPSSKSTSGGTAALGCLVKDYFPEPVTVSWNSGALTSGVHTFPAVLQSSGLYSLSSVVTVPSSSLGTQTYICNVNHKPSNTKVDKKV[letters of human IgG1 Fc with L234A L235A T299A (EU numbers) omitted]
light: QSVLTQPPSASGTPGQRVTISCTGSSSNIGSNYVTWYQQLPGTAPKLLIYDNSNRPSGVPDRFSGSKSGTSASLAISGLQSEDEADYYCSSFSDELGAYVFGGGTKLTVLGQPKAAPSVTLFPPSSEELQANKATLVCLISDFYPGAVTVAWKADSSPVKAGVETTTPSKQSNNKYAASSYLSLTPEQWKSHRSYSCQVTHEGSTVEKTVAPTECS
modifications: LALA-TA Fc mutations; IgG heavy chain 6_IgG1 mutant LALATA_amino acid; IgG light chain 3
B3: N3-8-1 mutant LALAPG: N3-8-1 with ADCC/CDC function removed; HC SEQ ID NO: 230, LC 111 (antibody)
heavy: EVQLLESGGGLVQPGGSLRLSCAASGFTFSSYDMSWVRQAPGKGLEWVSAISPYSGRIYYADSVKGRFTISRDNSKNTLYLQMNSLRAEDTAVYYCARMALDFDYWGQGTLVTVSSASTKGPSVFPLAPSSKSTSGGTAALGCLVKDYFPEPVTVSWNSGALTSGVHTFPAVLQSSGLYSLSSVVTVPSSSLGTQTYICNVNHKPSNTKVDKKV[letters of human IgG1 Fc with changes omitted]
light: QSVLTQPPSASGTPGQRVTISCTGSSSNIGSNYVTWYQQLPGTAPKLLIYDNSNRPSGVPDRFSGSKSGTSASLAISGLQSEDEADYYCSSFSDELGAYVFGGGTKLTVLGQPKAAPSVTLFPPSSEELQANKATLVCLISDFYPGAVTVAWKADSSPVKAGVETTTPSKQSNNKYAASSYLSLTPEQWKSHRSYSCQVTHEGSTVEKTVAPTECS
modifications: IgG heavy chain 6_IgG1 mutant LALAPG_amino acid; IgG light chain 3
B4: N3-8-5: N3-8 derivative; VH SEQ ID NO: 47, VL 53; HC 105, LC 113 (antibody)
heavy: EVQLLESGGGLVQPGGSLRLSCAASGFTFSSYDMSWVRQAPGKGLEWVSAISPYSGRIYYADSVKGRFTISRDNSKNTLYLQMNSLRAEDTAVYYCARLALDFDYWGQGTLVTVSS[letters of human IgG1 constant region omitted]
light: QSVLTQPPSASGTPGQRVTISCTGSSSNIGSNYVTWYQQLPGTAPKLLIYSNNQRPSGVPDRFSGSKSGTSASLAISGLQSEDEADYYCSSFSDELGAYVFGGGTKLTVLGQPKAAPSVTLFPPSSEELQANKATLVCLISDFYPGAVTVAWKADSSPVKAGVETTTPSKQSNNKYAASSYLSLTPEQWKSHRSYSCQVTHEGSTVEKTVAPTECS
modifications: IgG heavy chain 7; IgG light chain 4
notes: N3-8 derivative; HC 105, LC 113
B5: N3-8-6: N3-8 derivative; VH SEQ ID NO: 47, VL 55; HC 105, LC 115 (antibody)
heavy: EVQLLESGGGLVQPGGSLRLSCAASGFTFSSYDMSWVRQAPGKGLEWVSAISPYSGRIYYADSVKGRFTISRDNSKNTLYLQMNSLRAEDTAVYYCARLALDFDYWGQGTLVTVSS[letters of human IgG1 constant region omitted]
light: QSVLTQPPSASGTPGQRVTISCTGSSSNIGSNYVTWYQQLPGTAPKLLIYRNNQRPSGVPDRFSGSKSGTSASLAISGLQSEDEADYYCSSFSDELGAYVFGGGTKLTVLGQPKAAPSVTLFPPSSEELQANKATLVCLISDFYPGAVTVAWKADSSPVKAGVETTTPSKQSNNKYAASSYLSLTPEQWKSHRSYSCQVTHEGSTVEKTVAPTECS
modifications: IgG heavy chain 7; IgG light chain 5
notes: N3-8 derivative; HC 105, LC 115
B6: N3-8-2: N3-8 derivative; VH SEQ ID NO: 45, VL 53; HC 103, LC 113 (antibody)
heavy: EVQLLESGGGLVQPGGSLRLSCAASGFTFSSYDMSWVRQAPGKGLEWVSAISPYSGRIYYADSVKGRFTISRDNSKNTLYLQMNSLRAEDTAVYYCARMALDFDYWGQGTLVTVSS[letters of human IgG1 constant region omitted]
light: QSVLTQPPSASGTPGQRVTISCTGSSSNIGSNYVTWYQQLPGTAPKLLIYSNNQRPSGVPDRFSGSKSGTSASLAISGLQSEDEADYYCSSFSDELGAYVFGGGTKLTVLGQPKAAPSVTLFPPSSEELQANKATLVCLISDFYPGAVTVAWKADSSPVKAGVETTTPSKQSNNKYAASSYLSLTPEQWKSHRSYSCQVTHEGSTVEKTVAPTECS
modifications: IgG heavy chain 6; IgG light chain 4
notes: N3-8 derivative; HC 103, LC 113
B7: N3-8-3: N3-8 derivative; VH SEQ ID NO: 45, VL 55; HC 103, LC 115 (antibody)
heavy: EVQLLESGGGLVQPGGSLRLSCAASGFTFSSYDMSWVRQAPGKGLEWVSAISPYSGRIYYADSVKGRFTISRDNSKNTLYLQMNSLRAEDTAVYYCARMALDFDYWGQGTLVTVSS[letters of human IgG1 constant region omitted]
light: QSVLTQPPSASGTPGQRVTISCTGSSSNIGSNYVTWYQQLPGTAPKLLIYRNNQRPSGVPDRFSGSKSGTSASLAISGLQSEDEADYYCSSFSDELGAYVFGGGTKLTVLGQPKAAPSVTLFPPSSEELQANKATLVCLISDFYPGAVTVAWKADSSPVKAGVETTTPSKQSNNKYAASSYLSLTPEQWKSHRSYSCQVTHEGSTVEKTVAPTECS
modifications: IgG heavy chain 6; IgG light chain 5
notes: N3-8 derivative; HC 103, LC 115
B8: N3-8-4: N3-8 derivative; VH SEQ ID NO: 47, VL 51; HC 105, LC 111 (antibody)
heavy: EVQLLESGGGLVQPGGSLRLSCAASGFTFSSYDMSWVRQAPGKGLEWVSAISPYSGRIYYADSVKGRFTISRDNSKNTLYLQMNSLRAEDTAVYYCARLALDFDYWGQGTLVTVSS[letters of human IgG1 constant region omitted]
light: QSVLTQPPSASGTPGQRVTISCTGSSSNIGSNYVTWYQQLPGTAPKLLIYDNSNRPSGVPDRFSGSKSGTSASLAISGLQSEDEADYYCSSFSDELGAYVFGGGTKLTVLGQPKAAPSVTLFPPSSEELQANKATLVCLISDFYPGAVTVAWKADSSPVKAGVETTTPSKQSNNKYAASSYLSLTPEQWKSHRSYSCQVTHEGSTVEKTVAPTECS
modifications: IgG heavy chain 7; IgG light chain 3
notes: N3-8 derivative; HC 105, LC 111

Key:
RAW264.7 cells = experiment: LN421-dependent immune cell migration assay; format: cell-based; settings: 10 nM, 24 hours, LN421 2.5 μg/ml; FIG. 18
Description: In order to confirm the effect of the mutant antibody from which the ADCC/CDC function had been removed on immune cell migration, a cell migration assay was performed according to the method described in the prior literature (Park, S. G. et al. Human lysyl-tRNA synthetase is secreted to trigger pro-inflammatory response, Proc. Natl. Acad. Sci. USA 102, 6356-6361 (2005)).
Measurements were made in a trans well chamber with a polycarbonate membrane (5.0 μm pore size, Costar). LN421 was put into the lower chamber at a concentration of 2.5 μg/ml in the trans well chamber. Then, RAW264.7 cells were placed in the upper chamber at a concentration of 5×10^4 cells per well. Then, each antibody was put into the chamber at a concentration of 10 nM, and then incubated for 24 hours. Then, it was washed twice with PBS and treated with 70% MeOH (in PBS). After washing twice with PBS again, the transferred cells were stained with crystal violet (Sigma) and dried. Then, the upper chamber was put in 33% acetic acid (Merck) and stirred for 10 minutes. Crystal violet-dissolved acetic acid solution was transferred to a 96-well plate, and absorbance was measured at 590 nm in a microplate reader (Tecan).

[1] = tested on: T52D KRS-MDA-MB-231 stable cells; experiment: Laminin-dependent cancer cell migration assay; format: cell-based; settings: 10 nM, 7 hours; FIG. 19
Description: Measurements were made in a 24-well trans well chamber with a polycarbonate membrane (8.0 μm pore size, Costar). Laminin was added to the lower chamber at a concentration of 1 mg/ml, and a migration assay was performed using stable MDA-MB-231 cells overexpressing T52D KRS, which mimics a phosphorylated KRS. To induce T52D KRS expression, T52D KRS-MDA-MB-231 stable cells were treated with doxycycline (0.1 μg/ml) for one day, and then seeded in the upper chamber at a concentration of 4×10^4 cells after suspended in serum-free RPMI medium. […] The non-migrating cells existing above the membrane were removed with a cotton swab. The membrane was washed twice with PBS and treated with 70% MeOH (in PBS) for 30 minutes. Again washed twice with PBS, the membrane was stained using crystal violet (Slgma), and dried. Then, the upper chamber was put in 33% acetic acid (Merck) and stirred. Crystal violet-dissolved acetic acid solution was transferred to a 96-well plate, and absorbance was measured at 590 nm in a microplate reader (Tecan).

[2] = Thermal stability (protein thermal shift dye kit); format: physicochemical; settings: 1 mg/ml purified antibody
Description: In addition, the thermal stability of the antibody was measured using 100 μl of the purified antibodies at a concentration of 1 mg/ml. Thermostability was investigated 4 times using protein thermal shift dye kit (Thermofisher) and Quant Studio 3 Real-time PCR equipment (Thermofisher).

| Molecule | LN421-dependent cell migration (RAW264.7 cells) | laminin-dependent migration of cancer cells [1] | Thermal stability Tm1 [2] | Thermal stability Tm2 [2] |
| --- | --- | --- | --- | --- |
| B1 | inhibited LN421-dependent cell migration | inhibited the laminin-dependent migration of cancer cells |  |  |
| B2 | inhibited LN421-dependent cell migration | inhibited the laminin-dependent migration of cancer cells |  |  |
| B3 | inhibited LN421-dependent cell migration | inhibited the laminin-dependent migration of cancer cells |  |  |
| B4 |  |  | 72.9 |  |
| B5 |  |  | 71.0 | 76.97 |
| B6 |  |  | 72.41 |  |
| B7 |  |  | 71.02 | 76.31 |
| B8 |  |  | 70.31 |  |
